The full ranking holds about 33,000 sequences; the median of “E-score (dimensionless, -0.5 to 0.5)” is about -0.058, and the highest 2% start at about 0.35. The list shows a part of the results.
Tested on: MvaT
Experiment: PBM 8-mer E-score (mean of HK and ME arrays) (E-score (dimensionless, -0.5 to 0.5)); higher = stronger relative binding preference; most listed sequences are background and not binding sites
Protocol: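 Protein binding microarray: GST-tagged full-length MvaT (P. aeruginosa PAO1) bound to two universal double-stranded 60-mer arrays (ME and HK), each with a constant 25-mer primer and a variable 35-mer region covering all 8-mers. The 8-mer E-score (rank-based, range -0.5 to 0.5, >0.45 = specific binding) is the mean of the two arrays.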

| Sequence | PBM 8-mer E-score |
| --- | --- |
| AGTATATA | 0.446 |
| CGCCCCAC | -0.277 |
| AGCTTGCC | -0.279 |
| AGGACTCC | -0.184 |
| AACGAGCC | -0.124 |
| ATGCCCTA | -0.144 |
| CCTCTTCG | -0.264 |
| CTTGCCTC | -0.163 |
| CCCACGAG | -0.0913 |
| ACGTGGAG | -0.153 |
| AGACTGTC | -0.0538 |
| CCGGCTAC | -0.217 |
| CCAAATAG | 0.048 |
| ATACTGAC | 0.134 |
| TCGAACGA | -0.105 |
| GAGGTATC | -0.196 |
| CATAAATA | 0.358 |
| CGGTGTAC | -0.0511 |
| CTGAAAAC | 0.113 |
| CGGAGTCC | -0.236 |
| CGCGGCTA | -0.0237 |
| AAGGGCAC | -0.2 |
| GCATTGCA | 0.011 |
| ACTCATAA | 0.0577 |
| CTCTAAAG | -0.0253 |

| Sequence | PBM 8-mer E-score |
| --- | --- |
| AGCTCATG | -0.256 |
| ACGCAACC | -0.0683 |
| AAAGGTAG | 0.0786 |
| CTGCCCCC | -0.322 |
| CTGACGCC | -0.204 |
| CACTGAAC | 0.0731 |
| ACGCGGTC | -0.138 |
| ATCCCTAG | -0.128 |
| ACCACCTA | -0.0787 |
| GTATTGAC | 0.15 |
| ACGACCGA | -0.251 |
| GGGGAAAC | 0.053 |
| ATCCAATG | 0.0281 |
| CTCATGGA | -0.0725 |
| GGGATGTA | -0.0302 |
| AAGAGACC | -0.127 |
| CCAGGAGC | -0.198 |
| GACACTCC | -0.114 |
| AAGAGCCA | 0.00662 |
| GACACATC | -0.0667 |
| CTGCGATA | -0.0086 |
| CCTTTTAA | 0.331 |
| AAGTCCGA | -0.148 |
| AGATACGG | -0.112 |
| TAAAGGGA | 0.0582 |

| Sequence | PBM 8-mer E-score |
| --- | --- |
| GATATAGC | 0.127 |
| CAAGCCCA | -0.254 |
| CAATCGAA | -0.026 |
| CACCATCA | -0.0135 |
| AAGCTGGA | -0.137 |
| AACTGGTG | -0.0588 |
| GTTTCTCA | -9.41e-05 |
| TAGAGGCA | -0.0541 |
| CAAGCCCG | -0.307 |
| ACTTATAA | 0.419 |
| TCTGAGAA | -0.0369 |
| ATAAGTCA | 0.17 |
| GAAGTTAC | 0.168 |
| GATTGTAC | 0.161 |
| CCAATACA | 0.142 |
| AGTAGCAG | -0.0622 |
| ATCGCGAG | 0.0131 |
| GGGAGCAC | -0.308 |
| CACCATAA | 0.0993 |
| ATCATTCG | -0.042 |
| TACCAGCA | -0.0496 |
| AGATGGCG | -0.0778 |
| AGGTGTGG | 0.00346 |
| ACCTGTGA | -0.184 |
| GTCTAGGA | -0.207 |

| Sequence | PBM 8-mer E-score |
| --- | --- |
| GTATTTTA | 0.37 |
| AGTAAATG | 0.175 |
| AACGATCC | -0.0862 |
| ACTTTGAG | 0.03 |
| CAAGCCGC | -0.254 |
| GCTTTGTA | -0.0103 |
| ATTGCATG | 0.0576 |
| CCCTGCCC | -0.27 |
| AATGGTCG | -0.118 |
| AAGGGGGT | -0.225 |
| CAGTCCTC | -0.215 |
| ATCCCGTC | -0.218 |
| ACGGTACA | 0.0904 |
| CAAAGGAG | -0.218 |
| CATGACGA | -0.0695 |
| TCATGAGA | -0.065 |
| CACTGATG | -0.06 |
| GCGCCGTA | -0.159 |
| GACGGCCA | -0.21 |
| ATAAAGAG | 0.243 |
| AAACGTGT | -0.0108 |
| ATCCCAGC | -0.193 |
| CTTACCTC | 0.0108 |
| ACGCTGCG | -0.145 |
| CGAAAAAA | 0.151 |

| Sequence | PBM 8-mer E-score |
| --- | --- |
| AGCCACTC | -0.25 |
| GGCATAGA | -0.167 |
| GATGTTAC | 0.115 |
| AAGTAGTC | 0.226 |
| CAAGGCCG | -0.31 |
| TCAGAGGA | -0.198 |
| CGCTGCAG | -0.128 |
| AAGTGGCT | -0.152 |
| CGTCCCTC | -0.271 |
| CCGTTTCC | -0.0961 |
| CATGTTCG | 0.0679 |
| GGGATGGA | -0.3 |
| TAACGTGA | 0.153 |
| CCGAAAGC | -0.281 |
| GCAGACTA | -0.0219 |
| CGAAGCAA | -0.0842 |
| ACCCAGTC | -0.131 |
| CCTCAACA | -0.112 |
| CGCTCAAG | -0.137 |
| TCCCAACA | 0.111 |
| AGTCCTAT | -0.0292 |
| CACACTGC | -0.000522 |
| CAGTTCCA | -0.0926 |
| AAAATCAC | 0.0204 |
| CCCGCGAG | -0.105 |

| Sequence | PBM 8-mer E-score |
| --- | --- |
| CGAACCAA | -0.113 |
| AAAGTTCG | 0.303 |
| GGACTTAA | 0.0977 |
| ATTTGCTA | 0.152 |
| AAAATTTT | 0.354 |
| AACCGTAG | -0.0784 |
| GTAGAAAC | 0.215 |
| AAGGTGAA | 0.0174 |
| AGTCAAGA | -0.0115 |
| CCGATTGA | -0.0917 |
| CCATGGCG | -0.115 |
| AACGTGAT | 0.0805 |
| AAATTTTA | 0.35 |
| GCGCCACA | -0.225 |
| AGACGCCC | -0.287 |
| CCAAAATC | 0.17 |
| CCTATCCC | -0.0455 |
| AATTACAG | 0.268 |
| ATGTGCCA | -0.0332 |
| CCACTGGA | -0.239 |
| ATCCTGAG | -0.0656 |
| CTTAAAGC | -0.00393 |
| GCGTTAAA | 0.172 |
| AAACCAAT | 0.232 |
| GGAAACCC | -0.323 |

| Sequence | PBM 8-mer E-score |
| --- | --- |
| GCCTTTCC | -0.265 |
| GCATATCA | 0.0663 |
| AGCAGTAT | 0.126 |
| AACGTATT | 0.304 |
| GGGGAGAC | -0.218 |
| CAGCTAAA | -0.0716 |
| CAACATGA | 0.157 |
| CACAGTGC | -0.217 |
| CTCCCGAA | -0.154 |
| ATCCACTA | -0.0565 |
| CTTCACGC | -0.115 |
| CCTTTCCG | -0.074 |
| AACTCAGA | 0.121 |
| AAAATGCA | 0.0909 |
| ACTTTAAC | 0.326 |
| ACTGGTTA | -0.00614 |
| ACAGGCCA | -0.184 |
| ATTTTGGC | 0.0549 |
| AGAAGTAG | 0.00917 |
| ATATCCCA | 0.172 |
| CAGTTGTA | 0.0922 |
| CGTCAATC | -0.247 |

Source: the supplement of paper PMC4466236
